# The other results are listed elsewhere or left out.
# B1: UEA-I (Ulex europaeus), P22972 (protein)
# chain: SDDLSFKFKNFSQNGKDLSFQGDASVIETGVLQLNKVGNNLPDETGGIARYIAPIHIWNCNTGEVASFITSFSFFMETSANPKAATDGLTFFLAPPDSPLRRAGGYFGLFEDTKDNDSSYQTVAVEFDTIGSPVNFDDPGFPHIGIDVNRVKSINAERWNKRYGLNNVANVEIIYEASSKTLTASLTYPSDQTSISVTSIVDLKEILPEWVSVGFSGGTYIGRQATHEVLNWYFTSNLIN
# Assays:
# Assay in all cases: glycan array binding signal (z-score within array); higher = stronger binding
# Conditions in all cases: glycan notation: IUPAC condensed, linker removed
# [1] = biological target: Man(a1-2)Man(a1-3)[Man(a1-2)Man(a1-6)]Man(a1-6)[Man(a1-2)Man(a1-2)Man(a1-3)]Man(b1-4)GlcNAc(b1-4)GlcNAc
# Outline: (§1)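 Arrays were curated from the Consortium for Functional Glycomics database, 3228 in total, and kept only where the protein sequence was available. Binding is expressed as a within-array Z-score. This score was averaged across arrays of the same protein sequence at different concentrations or buffers and across linkers, and negative values can be read as non-binding.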
# [2] = biological target: Man(a1-2)Man(a1-3)[Man(a1-6)]Man(a1-6)[Man(a1-2)Man(a1-3)]Man(b1-4)GlcNAc(b1-4)GlcNAc
# Outline: as §1
# [3] = biological target: Man(a1-2)Man(a1-6)[Man(a1-3)]Man(a1-6)[Man(a1-2)Man(a1-2)Man(a1-3)]Man
# Outline: as §1
# [4] = biological target: Man(a1-2)Man(a1-6)[Man(a1-3)]Man(a1-6)[Man(a1-2)Man(a1-2)Man(a1-3)]Man(b1-4)GlcNAc(b1-4)GlcNAc
# Outline: as §1
# Man(a1-3)[Man(a1-6)]Man = biological target: Man(a1-3)[Man(a1-6)]Man
# Outline: as §1
# [5] = biological target: Man(a1-3)[Man(a1-6)]Man(a1-6)[Man(a1-2)Man(a1-3)]Man(b1-4)GlcNAc(b1-4)GlcNAc
# Outline: as §1
# [6] = biological target: Man(a1-3)[Man(a1-6)]Man(a1-6)[Man(a1-3)]Man
# Outline: as §1
# [7] = biological target: Man(a1-3)[Man(a1-6)]Man(a1-6)[Man(a1-3)]Man(b1-4)GlcNAc(b1-4)GlcNAc
# Outline: as §1
# [8] = biological target: Man(a1-3)[Man(a1-6)]Man(b1-4)GlcNAc(b1-4)GlcNAc
# Outline: as §1
# Man(a1-6)Man = biological target: Man(a1-6)Man
# Outline: as §1
# Man(b1-4)GlcNAc = biological target: Man(b1-4)GlcNAc
# Outline: as §1
# Neu5Ac(a2-3)Gal = biological target: Neu5Ac(a2-3)Gal
# Outline: as §1
# [9] = biological target: Neu5Ac(a2-3)Gal(b1-3)GalNAc
# Outline: as §1
# [10] = biological target: Neu5Ac(a2-3)Gal(b1-3)GalNAc(b1-3)Gal(a1-4)Gal(b1-4)Glc
# Outline: as §1
# [11] = biological target: Neu5Ac(a2-3)Gal(b1-3)GalNAc(b1-4)[Neu5Ac(a2-3)]Gal(b1-4)Glc
# Outline: as §1
# [12] = biological target: Neu5Ac(a2-3)Gal(b1-3)GalNAc(b1-4)[Neu5Ac(a2-8)Neu5Ac(a2-3)]Gal(b1-4)Glc
# Outline: as §1
# [13] = biological target: Neu5Ac(a2-3)Gal(b1-3)GalNAc6S
# Outline: as §1
# [14] = biological target: Neu5Ac(a2-3)Gal(b1-3)GlcNAc
# Outline: as §1
# [15] = biological target: Neu5Ac(a2-3)Gal(b1-3)GlcNAc(b1-2)Man(a1-3)[Neu5Ac(a2-3)Gal(b1-3)GlcNAc(b1-2)Man(a1-6)]Man(b1-4)GlcNAc(b1-4)GlcNAc
# Outline: as §1
# [16] = biological target: Neu5Ac(a2-3)Gal(b1-3)GlcNAc(b1-3)Gal(b1-3)GlcNAc
# Outline: as §1
# [17] = biological target: Neu5Ac(a2-3)Gal(b1-3)GlcNAc(b1-3)Gal(b1-4)GlcNAc
# Outline: as §1
# [18] = biological target: Neu5Ac(a2-3)Gal(b1-3)GlcNAc(b1-3)GalNAc
# Outline: as §1
# [19] = biological target: Neu5Ac(a2-3)Gal(b1-3)GlcNAc6S
# Outline: as §1
# [20] = biological target: Neu5Ac(a2-3)Gal(b1-3)[Fuc(a1-4)]GlcNAc
# Outline: as §1
# [21] = biological target: Neu5Ac(a2-3)Gal(b1-3)[Fuc(a1-4)]GlcNAc(b1-3)Gal(b1-3)[Fuc(a1-4)]GlcNAc
# Outline: as §1
# [22] = biological target: Neu5Ac(a2-3)Gal(b1-3)[Fuc(a1-4)]GlcNAc(b1-3)Gal(b1-4)[Fuc(a1-3)]GlcNAc
# Outline: as §1
# [23] = biological target: Neu5Ac(a2-3)Gal(b1-3)[Neu5Ac(a2-3)Gal(b1-4)]GlcNAc
# Outline: as §1
# [24] = biological target: Neu5Ac(a2-3)Gal(b1-3)[Neu5Ac(a2-6)]GalNAc
# Outline: as §1
# Neu5Ac(a2-3)Gal(b1-4)Glc = biological target: Neu5Ac(a2-3)Gal(b1-4)Glc
# Outline: as §1
# [25] = biological target: Neu5Ac(a2-3)Gal(b1-4)GlcNAc
# Outline: as §1
# [26] = biological target: Neu5Ac(a2-3)Gal(b1-4)GlcNAc(b1-2)Man(a1-3)[GlcNAc(b1-2)Man(b1-4)GlcNAc(b1-2)Man(a1-6)]Man(b1-4)GlcNAc(b1-4)GlcNAc
# Outline: as §1
# [27] = biological target: Neu5Ac(a2-3)Gal(b1-4)GlcNAc(b1-2)Man(a1-3)[Neu5Ac(a2-6)Gal(b1-4)GlcNAc(b1-2)Man(a1-6)]Man(b1-4)GlcNAc(b1-4)GlcNAc
# Outline: as §1
# [28] = biological target: Neu5Ac(a2-3)Gal(b1-4)GlcNAc(b1-3)Gal
# Outline: as §1
# [29] = biological target: Neu5Ac(a2-3)Gal(b1-4)GlcNAc(b1-3)Gal(b1-3)GlcNAc
# Outline: as §1
# [30] = biological target: Neu5Ac(a2-3)Gal(b1-4)GlcNAc(b1-3)Gal(b1-4)GlcNAc
# Outline: as §1
# [31] = biological target: Neu5Ac(a2-3)Gal(b1-4)GlcNAc(b1-3)Gal(b1-4)GlcNAc(b1-3)Gal(b1-4)GlcNAc
# Outline: as §1
# [32] = biological target: Neu5Ac(a2-3)Gal(b1-4)GlcNAc(b1-3)Gal(b1-4)[Fuc(a1-3)]GlcNAc
# Outline: as §1
# [33] = biological target: Neu5Ac(a2-3)Gal(b1-4)GlcNAc(b1-3)GalNAc
# Outline: as §1
# [34] = biological target: Neu5Ac(a2-3)Gal(b1-4)GlcNAc(b1-6)[Gal(b1-3)]GalNAc
# Outline: as §1
# [35] = biological target: Neu5Ac(a2-3)Gal(b1-4)GlcNAc(b1-6)[Neu5Ac(a2-3)Gal(b1-3)]GalNAc
# Outline: as §1
# [36] = biological target: Neu5Ac(a2-3)Gal(b1-4)GlcNAc6S
# Outline: as §1
# [37] = biological target: Neu5Ac(a2-3)Gal(b1-4)[Fuc(a1-3)]GlcNAc
# Outline: as §1
# [38] = biological target: Neu5Ac(a2-3)Gal(b1-4)[Fuc(a1-3)]GlcNAc(b1-3)Gal
# Outline: as §1
# [39] = biological target: Neu5Ac(a2-3)Gal(b1-4)[Fuc(a1-3)]GlcNAc(b1-3)Gal(b1-4)GlcNAc
# Outline: as §1
# [40] = biological target: Neu5Ac(a2-3)Gal(b1-4)[Fuc(a1-3)]GlcNAc(b1-3)Gal(b1-4)[Fuc(a1-3)]GlcNAc(b1-3)Gal(b1-4)[Fuc(a1-3)]GlcNAc
# Outline: as §1
# [41] = biological target: Neu5Ac(a2-3)Gal(b1-4)[Fuc(a1-3)]GlcNAc(b1-3)GalNAc
# Outline: as §1
# [42] = biological target: Neu5Ac(a2-3)Gal(b1-4)[Fuc(a1-3)]GlcNAc(b1-6)[Gal(b1-3)]GalNAc
# Outline: as §1
# [43] = biological target: Neu5Ac(a2-3)Gal(b1-4)[Fuc(a1-3)]GlcNAc(b1-6)[Neu5Ac(a2-3)Gal(b1-3)]GalNAc
# Outline: as §1
# [44] = biological target: Neu5Ac(a2-3)Gal(b1-4)[Fuc(a1-3)]GlcNAc6S
# Outline: as §1
# [45] = biological target: Neu5Ac(a2-3)Gal6S(b1-4)GlcNAc
# Outline: as §1
# [46] = biological target: Neu5Ac(a2-3)Gal6S(b1-4)[Fuc(a1-3)]GlcNAc
# Outline: as §1
binder,measurement,setting,value
B1,glycan array binding signal (z-score),[1],-0.168
same,glycan array binding signal (z-score),[2],-0.184
same,glycan array binding signal (z-score),[3],-0.182
same,glycan array binding signal (z-score),[4],-0.181
same,glycan array binding signal (z-score),Man(a1-3)[Man(a1-6)]Man,-0.183
same,glycan array binding signal (z-score),[5],-0.17
same,glycan array binding signal (z-score),[6],-0.172
same,glycan array binding signal (z-score),[7],-0.186
same,glycan array binding signal (z-score),[8],-0.181
same,glycan array binding signal (z-score),Man(a1-6)Man,-0.175
same,glycan array binding signal (z-score),Man(b1-4)GlcNAc,-0.184
same,glycan array binding signal (z-score),Neu5Ac(a2-3)Gal,-0.183
same,glycan array binding signal (z-score),[9],-0.18
same,glycan array binding signal (z-score),[10],-0.173
same,glycan array binding signal (z-score),[11],-0.18
same,glycan array binding signal (z-score),[12],-0.179
same,glycan array binding signal (z-score),[13],-0.177
same,glycan array binding signal (z-score),[14],-0.178
same,glycan array binding signal (z-score),[15],-0.183
same,glycan array binding signal (z-score),[16],-0.18
same,glycan array binding signal (z-score),[17],-0.182
same,glycan array binding signal (z-score),[18],-0.185
same,glycan array binding signal (z-score),[19],-0.174
same,glycan array binding signal (z-score),[20],-0.181
same,glycan array binding signal (z-score),[21],-0.17
same,glycan array binding signal (z-score),[22],-0.186
same,glycan array binding signal (z-score),[23],-0.187
same,glycan array binding signal (z-score),[24],-0.17
same,glycan array binding signal (z-score),Neu5Ac(a2-3)Gal(b1-4)Glc,-0.185
same,glycan array binding signal (z-score),[25],-0.181
same,glycan array binding signal (z-score),[26],-0.177
same,glycan array binding signal (z-score),[27],-0.178
same,glycan array binding signal (z-score),[28],-0.168
same,glycan array binding signal (z-score),[29],-0.178
same,glycan array binding signal (z-score),[30],-0.184
same,glycan array binding signal (z-score),[31],-0.183
same,glycan array binding signal (z-score),[32],-0.178
same,glycan array binding signal (z-score),[33],-0.178
same,glycan array binding signal (z-score),[34],-0.183
same,glycan array binding signal (z-score),[35],-0.179
same,glycan array binding signal (z-score),[36],-0.165
same,glycan array binding signal (z-score),[37],-0.177
same,glycan array binding signal (z-score),[38],-0.185
same,glycan array binding signal (z-score),[39],-0.175
same,glycan array binding signal (z-score),[40],-0.177
same,glycan array binding signal (z-score),[41],-0.147
same,glycan array binding signal (z-score),[42],-0.172
same,glycan array binding signal (z-score),[43],-0.177
same,glycan array binding signal (z-score),[44],-0.191
same,glycan array binding signal (z-score),[45],-0.178
same,glycan array binding signal (z-score),[46],-0.182

# Source: the supplement of paper PMC8728848
